# Reference: article PMC7819943, “Rice protein-binding microarrays: a tool to detect cis-acting elements near promoter regions in rice”
# This is one part of the list.
# Biological target: T1, OsWOX13 (Oryza sativa, UniProt Q5QMM3 1-267)
# T1 sequence: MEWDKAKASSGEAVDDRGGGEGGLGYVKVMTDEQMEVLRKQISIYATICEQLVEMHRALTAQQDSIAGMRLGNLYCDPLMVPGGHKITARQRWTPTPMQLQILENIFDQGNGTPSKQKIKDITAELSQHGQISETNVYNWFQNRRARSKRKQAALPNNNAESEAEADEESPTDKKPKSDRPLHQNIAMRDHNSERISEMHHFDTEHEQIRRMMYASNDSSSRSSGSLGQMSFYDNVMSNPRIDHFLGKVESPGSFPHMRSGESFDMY
# Test: protein-binding microarray (RPBM); PBS, 2% BSA, 51.3 ng/ul salmon testes DNA, 50 uM zinc acetate, 200 nM TF, 25 C, 1 h; high values mean tight binding
# Conditions: protein: recombinant; tags: N-terminal polyhistidine and DsRed monomer fusion (pET32a); label: CyDye5-dUTP incorporated in the synthesized complementary strand; 3' TTTTT single-stranded linker to array surface; dsDNA, one strand shown
# Outline: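 Ni–NTA purification followed expression in E. coli BL21-CodonPlus of transcription factors fused N-terminally to a polyhistidine tag and DsRed. At 200 nM in PBS with 2% BSA, salmon testes DNA and 50 µM zinc acetate, the protein was incubated for 1 h at 25 °C with a custom Agilent array that had been primer-extended with Cy5-dUTP and blocked with 2% BSA. After washing, the array was read on an Axon 4000B scanner. The binding signal is per-feature fluorescence intensity in arbitrary units.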
row,Sequence,binding signal
1,CCCAAATTAATCATCATGTAATAGAATGATATATTCATTGCGGAGTCACCTAGTGCAG,49200 fluorescence intensity (a.u.)
2,AATAATTGAGGTTCTTTCTGGTTATGGATGCCTCATTACGCGGAGTCACCTAGTGCAG,23700 fluorescence intensity (a.u.)
3,GGATTAATAGATCACACATAAGCGACACATCAAACTACATCGGAGTCACCTAGTGCAG,4890 fluorescence intensity (a.u.)
4,CGCTGACAGCCCGGGCCCACCGGTCGGATCGTGCTGGGTACGGAGTCACCTAGTGCAG,5820 fluorescence intensity (a.u.)
5,CCAGAATTGAAAGGACGATTGGATCAATTAATGGAAGCATCGGAGTCACCTAGTGCAG,38000 fluorescence intensity (a.u.)
6,ATAATATTAATTACTATGTTTCCATTCATGTTCATGCACACGGAGTCACCTAGTGCAG,12100 fluorescence intensity (a.u.)
7,TTTCTAATCACCTTGGATGCATGCTCTGCCGCCACCAACCCGGAGTCACCTAGTGCAG,3600 fluorescence intensity (a.u.)
8,CAGAAATGATGAATGTTGTAACTACACTTCAGAAGGATAGCGGAGTCACCTAGTGCAG,6270 fluorescence intensity (a.u.)
9,AGCAAACATAATTAACATATATATAATAAAGCTCAAAGAGCGGAGTCACCTAGTGCAG,10700 fluorescence intensity (a.u.)
10,AACTATATAATTAGAAACACGAGGATGATAAGATTTGGTCCGGAGTCACCTAGTGCAG,8480 fluorescence intensity (a.u.)
11,CTATAAGATTTATTATGATAATTTATATTATAATAATTGTCGGAGTCACCTAGTGCAG,11000 fluorescence intensity (a.u.)
12,AACATTCATACTAATTGGAAAGGGAGACCGCTCTTTGGGACGGAGTCACCTAGTGCAG,13900 fluorescence intensity (a.u.)
13,CATTTGTTTACCAATCATTACGATGGTTTCTTATCATATTCGGAGTCACCTAGTGCAG,6610 fluorescence intensity (a.u.)
14,TAATTTGACACTACCAATGATTTGGTAGGGCACCAAACCACGGAGTCACCTAGTGCAG,3500 fluorescence intensity (a.u.)
15,ATAAATTAAAACTTAATATGGTAACAGAGCTATAGTCATACGGAGTCACCTAGTGCAG,13500 fluorescence intensity (a.u.)
16,TTGAATTTGAAATTATCAAATTATACCAAATTGTACCTTGCGGAGTCACCTAGTGCAG,22600 fluorescence intensity (a.u.)
17,AATATGATAAAATAGTTGATTATCTACTTAAAAGAGAAGACGGAGTCACCTAGTGCAG,5740 fluorescence intensity (a.u.)
18,CTTGATTTATTGATTGATTAATAAAACATTTTATTTCCAACGGAGTCACCTAGTGCAG,56900 fluorescence intensity (a.u.)
19,ATCACTTTCATTTACAGTTAACTTATTATAAACAGTGTGACGGAGTCACCTAGTGCAG,4640 fluorescence intensity (a.u.)
20,TCTCGCTTCTGCCACTGCTGGCTGTGCTGCTTCCCTAGCTCGGAGTCACCTAGTGCAG,65100 fluorescence intensity (a.u.)
21,TAGTTATAAACTGACGATTTATTATACGTGTCCACACGTGCGGAGTCACCTAGTGCAG,4170 fluorescence intensity (a.u.)
22,TGAAGCTGTGTCAATCTACTGATCCAGGGCTTGATACAGTCGGAGTCACCTAGTGCAG,3590 fluorescence intensity (a.u.)
23,GGTTCATTAGTGGACATAATTAGTACCACCTTGTAAGTAGCGGAGTCACCTAGTGCAG,12200 fluorescence intensity (a.u.)
24,CCGTTGTTTAACCCGTGATTTGAATCTCACCCTACCACGACGGAGTCACCTAGTGCAG,7860 fluorescence intensity (a.u.)
25,GTAGTAGTACTTAATTAGTGATCATGAGTTGCTGACGCTTCGGAGTCACCTAGTGCAG,4260 fluorescence intensity (a.u.)
26,AAGATTTATGATTTTCTTACTAGAGAATTTAGATTTGCGTCGGAGTCACCTAGTGCAG,11000 fluorescence intensity (a.u.)
27,GTAATTAATTTCACTTTATTCTTCTTATAGATTACTACTACGGAGTCACCTAGTGCAG,25300 fluorescence intensity (a.u.)

row,Sequence,binding signal
1,CGCAAACAATTAGCACAACAATTAAATTAACTATATACGGCGGAGTCACCTAGTGCAG,24000 fluorescence intensity (a.u.)
2,GTCTAATCATGGACTAATTAGGCTCAAAAGATTCATCTCGCGGAGTCACCTAGTGCAG,39000 fluorescence intensity (a.u.)
3,TCGTCTCTAATGACATTAATTAACAGAGAGAGCTTATATTCGGAGTCACCTAGTGCAG,8590 fluorescence intensity (a.u.)
4,AACCTCAACCACGTCAATCAAAACGAACACTTTATTAACTCGGAGTCACCTAGTGCAG,6830 fluorescence intensity (a.u.)
5,TATAATTAATATCTAGTCTCACATGTCATACACACATGCACGGAGTCACCTAGTGCAG,18800 fluorescence intensity (a.u.)
6,CATTTTGTTCATTCGGGTTTGATTGTGTCATAGTTCTATACGGAGTCACCTAGTGCAG,3390 fluorescence intensity (a.u.)
7,CCATTGAATTGATCAGATGAACCTGCGTGACTGCTTCACTCGGAGTCACCTAGTGCAG,14800 fluorescence intensity (a.u.)
8,ATAGTTACAATGTAATTACATGCAAGTTATAGTGTAATTACGGAGTCACCTAGTGCAG,6110 fluorescence intensity (a.u.)
9,CGAATCTTTTAATTAAAATTATGATAAGATAAGAGGTACACGGAGTCACCTAGTGCAG,15300 fluorescence intensity (a.u.)
10,TTAGCTATCACAGACACAATCACACAACGATGGTAAAACACGGAGTCACCTAGTGCAG,6740 fluorescence intensity (a.u.)
11,TTAACATGTAATCAATTAAATACTAATTATTATAAACGTGCGGAGTCACCTAGTGCAG,53100 fluorescence intensity (a.u.)
12,AAGGAACAAATTAAACTGAAACCAGTTAATGTACATTTGCCGGAGTCACCTAGTGCAG,8230 fluorescence intensity (a.u.)
13,TAGTAAATGATATCAATTTAGGTGGTGTTCTTTTCTTCTGCGGAGTCACCTAGTGCAG,26600 fluorescence intensity (a.u.)
14,TTTGATTTAATTTGTTCTGCAAACAGTCCGGAAAATGCCTCGGAGTCACCTAGTGCAG,53500 fluorescence intensity (a.u.)
15,ATGATTGTTGAAACAAAATTGCACAATAGACATGAGATTACGGAGTCACCTAGTGCAG,26600 fluorescence intensity (a.u.)
16,ATTAATTTGACCAACTTCATTCAACATGTAACATGGTCTCCGGAGTCACCTAGTGCAG,16600 fluorescence intensity (a.u.)
17,CAAAATGACAGAGTGAGTAGGATAGATGGTACATGAAACACGGAGTCACCTAGTGCAG,3500 fluorescence intensity (a.u.)
18,AATGTTAAATTTGATACTTATTTACTGGGCAGATTAACGCCGGAGTCACCTAGTGCAG,7410 fluorescence intensity (a.u.)
19,AAGATTCTTAATTTCTTTCTATTGCTGTTGATATCTCATACGGAGTCACCTAGTGCAG,5060 fluorescence intensity (a.u.)
20,CTAATTTAATTCGAAGAATGGCGCATGAGTTCGCGTGAAGCGGAGTCACCTAGTGCAG,3570 fluorescence intensity (a.u.)
21,CCTATAATTGAGGCAGATTAAGAACAATAGCACTTGTACACGGAGTCACCTAGTGCAG,29900 fluorescence intensity (a.u.)
22,AAAAGATTAAATTAATCCAATCGAGCTAGCTAAGCAGGTCCGGAGTCACCTAGTGCAG,17700 fluorescence intensity (a.u.)
23,ATCAATTCAAATTTAAATTTTGATGAAACTCTTCGAAATCCGGAGTCACCTAGTGCAG,14400 fluorescence intensity (a.u.)
24,GATGTTGACTGGTGTGTACTGTTTGTTGTGGTGGCTGCAGCGGAGTCACCTAGTGCAG,13400 fluorescence intensity (a.u.)
25,ACTAATGGATATCCAATGAGAAGAGGGAGTACATACACTGCGGAGTCACCTAGTGCAG,12600 fluorescence intensity (a.u.)
26,GTCTAATTAATCTCTAGCTAGCTTAGAATTAGATAAGCTTCGGAGTCACCTAGTGCAG,23500 fluorescence intensity (a.u.)
27,AGGGTTATAATTAGATGGGTAGTGGAGGTAGGTAAGAAAACGGAGTCACCTAGTGCAG,6030 fluorescence intensity (a.u.)
